# Screen size: about 310,000 compounds; about 14,000 (4.5%) showed an effect of 50% or more. The effect is printed as a negative number. The list shows a part of the results.
# Molecular target: human ether-à-go-go-related gene (hERG) potassium channel (human, UniProt Q12809)
# Test: primary screen, population patch clamp on CHO cells stably expressing hERG
# 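Further: peak tail current of the secondary pulse compared with the same well before compound.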
# Sequence of human ether-à-go-go-related gene (hERG) potassium channel (Q12809 whole entry, looked up): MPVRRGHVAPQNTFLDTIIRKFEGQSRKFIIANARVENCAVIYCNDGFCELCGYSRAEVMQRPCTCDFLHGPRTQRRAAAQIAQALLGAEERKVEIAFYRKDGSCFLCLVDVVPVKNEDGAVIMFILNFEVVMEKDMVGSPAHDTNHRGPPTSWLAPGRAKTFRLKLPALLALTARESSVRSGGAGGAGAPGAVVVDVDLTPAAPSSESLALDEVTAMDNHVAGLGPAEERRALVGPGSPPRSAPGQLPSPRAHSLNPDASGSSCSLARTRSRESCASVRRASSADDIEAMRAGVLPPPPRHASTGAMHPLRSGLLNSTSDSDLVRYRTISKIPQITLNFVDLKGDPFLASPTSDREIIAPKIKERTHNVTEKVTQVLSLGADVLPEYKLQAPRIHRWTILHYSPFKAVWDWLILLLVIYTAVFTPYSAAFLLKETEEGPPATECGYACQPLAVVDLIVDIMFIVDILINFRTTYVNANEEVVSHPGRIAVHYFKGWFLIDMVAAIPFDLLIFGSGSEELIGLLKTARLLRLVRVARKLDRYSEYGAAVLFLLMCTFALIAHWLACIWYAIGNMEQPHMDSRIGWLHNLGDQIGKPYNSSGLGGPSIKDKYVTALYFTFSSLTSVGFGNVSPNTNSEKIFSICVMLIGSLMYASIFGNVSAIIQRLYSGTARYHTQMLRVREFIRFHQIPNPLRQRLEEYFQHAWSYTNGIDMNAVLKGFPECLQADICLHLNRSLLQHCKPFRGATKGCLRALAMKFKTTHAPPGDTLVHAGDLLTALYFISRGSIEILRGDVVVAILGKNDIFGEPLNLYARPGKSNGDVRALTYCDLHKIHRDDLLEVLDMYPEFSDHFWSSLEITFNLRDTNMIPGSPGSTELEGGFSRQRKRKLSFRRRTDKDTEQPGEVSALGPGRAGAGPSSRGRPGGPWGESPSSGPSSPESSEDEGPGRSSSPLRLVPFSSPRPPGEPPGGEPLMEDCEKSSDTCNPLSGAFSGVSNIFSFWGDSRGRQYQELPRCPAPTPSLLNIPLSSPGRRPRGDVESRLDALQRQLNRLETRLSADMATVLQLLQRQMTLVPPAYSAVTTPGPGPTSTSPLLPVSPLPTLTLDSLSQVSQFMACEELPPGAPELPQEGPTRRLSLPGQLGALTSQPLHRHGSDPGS
row,SMILES,"hERG current change (%, negative = inhibition) at 10uM"
1,CC1CCN(C(=O)CSc2nc3cccnc3n2C)CC1,2.66%
2,COc1ccc(Nc2nc(N3CCCC3)nc3ccccc23)c(OC)c1,-44.6%
3,Cc1c(C(=O)N2CCc3ccccc32)oc2ccccc12,6.24%
4,CC1CN(C(=O)CN2C(=O)c3ccccc3S2(=O)=O)CC(C)O1 (stereo not drawn),3.72%
5,CCc1nnc(NC(=O)CSc2nc(N)c(NC(=O)c3ccc(OC)cc3)c(=O)[nH]2)s1,23.4%
6,CCOCCc1nn2c(=O)cc(CSCC(=O)Nc3cc(C)cc(C)c3)nc2s1,7.76%
7,CN(C)c1ccc(P(=O)(COc2ccc([N+](=O)[O-])cc2)c2ccc(N(C)C)cc2)cc1,-41.9%
8,CCOC(=O)c1ccc(N2C(=O)CC(C(=O)OC)=C2C)cc1,8.74%
9,COc1cccc2cc(C(=O)Nc3cc(C)cc(C)c3)/c(=N/NS(=O)(=O)c3ccccc3)oc12,19.5%
10,CCOc1ccccc1N1CCN(C(=O)C2CSC3(C)CCC(=O)N23)CC1 (stereo not drawn),-6.5%
11,COc1ccc(-c2ccc(S(=O)(=O)NCC3CCCO3)cc2)cc1 (stereo not drawn),8.68%
12,C=CCNC(=O)c1ccc(Cn2c(=S)[nH]c3cc4c(cc3c2=O)OCO4)cc1,15.5%
13,O=C(/C=C/c1ccccc1)NC(=S)Nc1ccc2c3c(cccc13)CC2,21.2%
14,Cc1ccc(C(=O)N=c2sccn2C)o1,23.6%
15,O=c1[nH]c(=O)n(-c2ccccc2)c(O)c1C=NC12CN3CN(CN(C3)C1)C2,9.13%
16,CC(=O)NCCC(=O)N1CCc2c([nH]c3ccccc23)C1c1cccc(C)c1 (stereo not drawn),-14.3%
17,CC1CCN(C(=O)C2Cc3ccccc3CN2S(=O)(=O)c2ccc(F)cc2)CC1 (stereo not drawn),-22.9%
18,Cl.O=C(O)CCCCCNc1nc(-c2ccccc2)nc2ccccc12,3.35%
19,CCOC(=O)C1CCCN(C(=O)COC(=O)c2ccc(C#N)cc2)C1 (stereo not drawn),8.36%

row,SMILES,"hERG current change (%, negative = inhibition) at 10uM"
1,CC(C)C(=O)Nc1ncc(Cc2cccc(Cl)c2)s1,0.846%
2,Cc1cc(Oc2cc(N)cc([N+](=O)[O-])c2)ccc1Cl,1.43%
3,O=C(O)C1C2C=CC(C2)C1C(=O)NCc1ccccc1 (stereo not drawn),2.2%
4,CC(=O)Nc1cccc(NC(=O)CCCC2CCCCC2)c1,12.5%
5,CCCCn1c(-c2cccs2)nc2nc3ccccc3nc21,-6.55%
6,COc1ccccc1N(C)S(=O)(=O)c1ccc(Cl)c(C(=O)NCC2(N(C)C)CCCCC2)c1,-36%
7,COc1ccc(Cl)cc1NC(=O)CN(C)C(=O)Cc1ccc2c(c1)CCC2,-7.26%
8,O=C(NCCCN1CCOCC1)C1CCCN(S(=O)(=O)N2CCCCC2)C1 (stereo not drawn),52.1%
9,Cc1c(Cl)cccc1NC(=O)CCC(=O)NNC(=O)c1ccccc1Cl,-3.57%
10,O=C(NCc1ccco1)c1cc(S(=O)(=O)N2CCCc3ccccc32)ccc1Cl,-24.9%
11,Cc1ccc(-c2cc(-c3n[nH]c(=S)n3C)c3ccccc3n2)cc1,17.4%
12,Cc1ccc(Sc2nc3ccc(C)cn3c(=O)c2/C=N/O)cc1,20.9%
13,O[C@@H]1CN(C2CCCCC2)CC[C@H]1N1CCN(CCc2ccccc2)CC1,7.97%
14,COc1ccc([N+](=O)[O-])cc1NC(=O)C1CCCO1 (stereo not drawn),0.923%
15,CC1(C)COCN1C(=O)c1ccc(C#N)cc1,17.3%
16,O=C(Nc1ccc2[nH]c(=O)[nH]c2c1)c1ccc(Cl)c(Cl)c1,30%
17,Cc1ccc2nc(N/C(=N/S(=O)(=O)c3cccs3)c3ccccc3Cl)sc2c1,-7.11%
18,COc1cc(SC)ccc1C(=O)NCCOc1ccccc1Cl,2.89%
19,CCOC(=O)N1CCC(n2c(=S)[nH]c3cc(OC)c(OC)cc3c2=O)CC1,1.67%

row,SMILES,"hERG current change (%, negative = inhibition) at 10uM"
1,Cc1cc(NC(=O)c2ccccc2C)n(-c2cccc(F)c2)n1,10.6%
2,COc1ccc(NCC(O)Cn2c(C)c(C)c3ccccc32)cc1 (stereo not drawn),-1.09%
3,COc1cc2c(cc1OC)/C(=C/C(=O)c1cccc([N+](=O)[O-])c1)NCC2,5.74%
4,O=C(COC(=O)CNC(=O)C1CCCCC1)Nc1cc(C(F)(F)F)ccc1Cl,17.5%
5,COc1ccc(-c2noc(Cc3ccc(Cl)cc3)n2)cc1OC,2.6%
6,O=C(CSc1nnc(-c2ccc(Cl)cc2)n1CC1CCCO1)NC1CCS(=O)(=O)C1 (stereo not drawn),30.7%
7,Cc1ccc(CC2C(=O)N(CC(=O)O)C(=O)C2C)cc1 (stereo not drawn),-8.51%
8,O=C(COC(=O)c1sc2ccccc2c1Cl)NCC1CCCCC1,16.4%
9,COc1ccc(C2N3CC4(C)CN2CC(C)(C3)C4O)cc1OC (stereo not drawn),12.3%
10,Cc1cccc(-c2nc(C#N)c(NCc3ccco3)o2)c1,15.6%
11,CCN(CC)C(=O)c1ccc(NC(=O)c2cc(S(=O)(=O)N3CCCCCC3)ccc2OC)cc1,-21.9%
12,CC1CN(C(=O)CCC(=O)NCc2ccccc2)c2ccccc2S1 (stereo not drawn),-1.84%
13,CCOCCCNCc1cc(Br)ccc1OCC.Cl,-55.5%
14,COc1ccc(C)cc1NC(=O)c1ccoc1C,4.91%
15,CCOc1ccccc1NC(=O)c1nc(S(=O)(=O)Cc2ccccc2)ncc1Cl,15.6%
16,CC(C)c1ccc(S(=O)(=O)N2CCN(C(=O)CCNC(=O)Nc3ccccc3)CC2)cc1,-23.7%
17,CCn1c(=NC(=O)c2ccc(N3C(=O)CCC3=O)cc2)sc2c(OC)ccc(OC)c21,8.73%
18,CCOc1ccc(C(=O)OCC(=O)N2CCOCC2)cc1OCC,9.34%
19,COC(=O)c1cc(C(=O)Nc2ccc(S(=O)(=O)NC(C)(C)C)cc2)cc([N+](=O)[O-])c1,-33%
